To fix the notation:
B1: TEV protease; numbered along this chain (parent)
chain: MGESLFKGPRDYNPISSSICHLTNESDGHTTSLYGIGFGPFIITNKHLFRRNNGTLVVQSLHGVFKVKDTTTLQQHLVDGRDMIIIRMPKDFPPFPQKLKFREPQREERICLVTTNFQTKSMSSMVSDTSCTFPSGDGIFWKHWIQTKDGQCGSPLVSTRDGFIVGIHSASNFTNTNNYFTSVPKNFMELLTNQEAQQWVSGWRLNADSVLWGGHKVFMVKPEEPFQPVKEATQL

In the test the parent is B1. In words: raw area under fraction-flipped curve 0-4 h after induction (AUC4h, not background-subtracted), DNA-recorder readout of cleavage of the substrate (dimensionless); higher = more cleavage of the substrate by the protease variant. The following applies: temperature: 34 °C; time window: 0-4 h after rhamnose induction. As for the experimental part: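 In vivo DNA recorder in E. coli TOP10(DE3) ΔrhaA at 34 °C. Each TEVp single-site mutant (parent TEVp 0) is paired with a single-site variant of the 7-mer TEVs (canonical ENLYFQ|S). The substrate sits between flexible linkers in a Bxb1-sfGFP-TEVs-SsrA fusion, so cleavage stabilises Bxb1 and speeds flipping of a recombination array, read by NGS. The value is the raw area under the fraction-flipped curve over 0-4 h after rhamnose induction (AUC4h), with ≥20 reads per time point. It is not background-subtracted; inactive controls average about 0.047.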

The list shows a part of the results. Sequences were assembled here from the parent chain. Values near 0.05 are background.
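Note: Bxb1 expression induced with 0.2% (w/v) L-rhamnose at OD600 near 0.5, cultures sampled hourly, flipped fraction per protease–substrate barcode pair counted by paired-end Illumina sequencing.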

As to MGESLFKGPRDYNPISSSICHLTNESDGHTTSLYGIGFGPFIIDNKHLFRRNNGTLVVQSLHGVFKVKDTTTLQQHLVDGRDMIIIRMPKDFPPFPQKLKFREPQREERICLVTTNFQTKSMSSMVSDTSCTFPSGDGIFWKHWIQTKDGQCGSPLVSTRDGFIVGIHSASNFTNTNNYFTSVPKNFMELLTNQEAQQWVSGWRLNADSVLWGGHKVFMVKPEEPFQPVKEATQL [T44D], the “area with substrate ENLYFQA” value came out at 0.0391, the “area with substrate ENLYFQC” value turned out to be 0.0455, the “area with substrate ENLYFQD” value is 0.0341 and the “area with substrate ENLYFQE” value stood at 0.0446. Also, the “area with substrate ENLYFQG” value turned out to be 0.0289, the “area with substrate ENLYFQH” value came to 0.0342, the “area with substrate ENLYFQI” value worked out at 0.0494 and the “area with substrate ENLYFQK” value turned out to be 0.0381. In addition, the “area with substrate ENLYFQL” value worked out at 0.0479, the “area with substrate ENLYFQM” value was 0.0503, the “area with substrate ENLYFQN” value is 0.0391 and the “area with substrate ENLYFQP” value worked out at 0.0319. The “area with substrate ENLYFQQ” value stood at 0.0409, the “area with substrate ENLYFQR” value came out at 0.0405, the “area with substrate ENLYFQS” value was found to be 0.0439 and the “area with substrate ENLYFQT” value is 0.0513. The “area with substrate ENLYFQV” value is 0.0284 and the “area with substrate ENLYFQW” value worked out at 0.0395.
Turning to MGESLFKGPRDYNPISSSICHLTNESDGHTTHLYGIGFGPFIITNKHLFRRNNGTLVVQSLHGVFKVKDTTTLQQHLVDGRDMIIIRMPKDFPPFPQKLKFREPQREERICLVTTNFQTKSMSSMVSDTSCTFPSGDGIFWKHWIQTKDGQCGSPLVSTRDGFIVGIHSASNFTNTNNYFTSVPKNFMELLTNQEAQQWVSGWRLNADSVLWGGHKVFMVKPEEPFQPVKEATQL [S32H], the “area with substrate ENLYFQA” value amounted to 0.0791, the “area with substrate ENLYFQC” value amounted to 0.111, the “area with substrate ENLYFQD” value was 0.0797 and the “area with substrate ENLYFQF” value amounted to 0.0556. Further, the “area with substrate ENLYFQG” value was found to be 0.0838, the “area with substrate ENLYFQH” value worked out at 0.049, the “area with substrate ENLYFQI” value is 0.0608 and the “area with substrate ENLYFQK” value turned out to be 0.0675. Further, the “area with substrate ENLYFQL” value came out at 0.0625, the “area with substrate ENLYFQM” value came out at 0.0913, the “area with substrate ENLYFQN” value came to 0.0794 and the “area with substrate ENLYFQP” value stood at 0.0546. In addition, the “area with substrate ENLYFQQ” value stood at 0.0607, the “area with substrate ENLYFQR” value stood at 0.0598, the “area with substrate ENLYFQS” value is 0.0963 and the “area with substrate ENLYFQT” value came to 0.0679. The “area with substrate ENLYFQV” value came out at 0.057, the “area with substrate ENLYFQW” value was determined as 0.058 and the “area with substrate ENLYFQY” value stood at 0.0687.
Turning to MGESLFKGPRDYNPISSSICHLTNESDGHTTSLYGIGPGPFIITNKHLFRRNNGTLVVQSLHGVFKVKDTTTLQQHLVDGRDMIIIRMPKDFPPFPQKLKFREPQREERICLVTTNFQTKSMSSMVSDTSCTFPSGDGIFWKHWIQTKDGQCGSPLVSTRDGFIVGIHSASNFTNTNNYFTSVPKNFMELLTNQEAQQWVSGWRLNADSVLWGGHKVFMVKPEEPFQPVKEATQL [F38P], the “area with substrate ENLYFQA” value worked out at 0.0298, the “area with substrate ENLYFQC” value was determined as 0.0294, the “area with substrate ENLYFQF” value turned out to be 0.0501 and the “area with substrate ENLYFQG” value was 0.0438. The “area with substrate ENLYFQH” value turned out to be 0.0573, the “area with substrate ENLYFQI” value came to 0.0424, the “area with substrate ENLYFQK” value stood at 0.0413 and the “area with substrate ENLYFQL” value stood at 0.0575. Also, the “area with substrate ENLYFQN” value was 0.0379, the “area with substrate ENLYFQP” value was determined as 0.0404, the “area with substrate ENLYFQR” value worked out at 0.041 and the “area with substrate ENLYFQS” value is 0.0417. Also, the “area with substrate ENLYFQT” value was determined as 0.0374, the “area with substrate ENLYFQV” value stood at 0.0431, the “area with substrate ENLYFQW” value was 0.0431 and the “area with substrate ENLYFQY” value came out at 0.0368.
Consider MGESLFKGPRDYNPISSSICHLTNESDGHTTSLYGIPFGPFIITNKHLFRRNNGTLVVQSLHGVFKVKDTTTLQQHLVDGRDMIIIRMPKDFPPFPQKLKFREPQREERICLVTTNFQTKSMSSMVSDTSCTFPSGDGIFWKHWIQTKDGQCGSPLVSTRDGFIVGIHSASNFTNTNNYFTSVPKNFMELLTNQEAQQWVSGWRLNADSVLWGGHKVFMVKPEEPFQPVKEATQL [G37P], for which the “area with substrate ENLYFQA” value came out at 0.0529, the “area with substrate ENLYFQC” value worked out at 0.0843, the “area with substrate ENLYFQG” value was found to be 0.0608 and the “area with substrate ENLYFQI” value stood at 0.0456. For the same variant, the “area with substrate ENLYFQK” value stood at 0.0035, the “area with substrate ENLYFQL” value worked out at 0.0298, the “area with substrate ENLYFQM” value is 0.0494 and the “area with substrate ENLYFQR” value was 0.0466. The “area with substrate ENLYFQS” value was 0.0574, the “area with substrate ENLYFQV” value was 0.0386 and the “area with substrate ENLYFQY” value came to 0.0348.
Regarding MGESLFKGPRDYNPISSSICHLTNESDGHTTSLYGIGFWPFIITNKHLFRRNNGTLVVQSLHGVFKVKDTTTLQQHLVDGRDMIIIRMPKDFPPFPQKLKFREPQREERICLVTTNFQTKSMSSMVSDTSCTFPSGDGIFWKHWIQTKDGQCGSPLVSTRDGFIVGIHSASNFTNTNNYFTSVPKNFMELLTNQEAQQWVSGWRLNADSVLWGGHKVFMVKPEEPFQPVKEATQL [G39W], the “area with substrate ENLYFQA” value was 0.0602, the “area with substrate ENLYFQC” value came to 0.0533, the “area with substrate ENLYFQD” value amounted to 0.0496 and the “area with substrate ENLYFQF” value stood at 0.0331. In addition, the “area with substrate ENLYFQG” value was determined as 0.0528, the “area with substrate ENLYFQH” value was found to be 0.0529, the “area with substrate ENLYFQI” value came to 0.0517 and the “area with substrate ENLYFQK” value worked out at 0.0489. For the same variant, the “area with substrate ENLYFQL” value came out at 0.0405, the “area with substrate ENLYFQM” value was determined as 0.0323, the “area with substrate ENLYFQN” value worked out at 0.0424 and the “area with substrate ENLYFQQ” value stood at 0.053. Further, the “area with substrate ENLYFQR” value stood at 0.0419, the “area with substrate ENLYFQS” value came to 0.0478, the “area with substrate ENLYFQT” value is 0.0484 and the “area with substrate ENLYFQV” value amounted to 0.0346. In addition, the “area with substrate ENLYFQW” value was determined as 0.0512 and the “area with substrate ENLYFQY” value was found to be 0.0471.

These data come from the supplement of paper PMC12217912.
